Experiment in all cases: Primary Screen for Target Class Profiling of Small Molecule Inhibitors of Methyltransferases
The target of test [1] is Glycine N-methyltransferase (Homo sapiens) (UniProt Q14749). Particulars: purified enzyme, MTase-Glo SAH luminescence; measured here: GNMT inhibition; at 40 µM; stronger effect = lower value. The method, boiled down: (§1)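 Each enzyme was assayed with SAM and its substrate. SAH formation detected by MTase-Glo luminescence; single-point 40 uM screen[…].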
For test [2], the target named is Guanidinoacetate N-methyltransferase (Homo sapiens) (UniProt Q14353). Particulars: purified enzyme, MTase-Glo SAH luminescence; measured here: GAMT inhibition; at 40 µM; stronger effect = lower value. The method, boiled down:
as §1

Test [3] addresses Histamine N-methyltransferase (Homo sapiens) (UniProt P50135). Particulars: purified enzyme, MTase-Glo SAH luminescence; measured here: HNMT inhibition; at 40 µM; stronger effect = lower value. The method, boiled down:
as §1

The target of test [4] is Nicotinamide N-methyltransferase (Homo sapiens) (UniProt P40261). Particulars: purified enzyme, MTase-Glo SAH luminescence; measured here: NNMT inhibition; at 40 µM; stronger effect = lower value. In short, it runs like this:
as §1

Test [5] addresses Phenylethanolamine N-methyltransferase (Homo sapiens) (UniProt P11086). Particulars: purified enzyme, MTase-Glo SAH luminescence; measured here: PNMT inhibition; at 40 µM; stronger effect = lower value. In short, it runs like this: as §1

“And” between values parts separate entries of the source, which are not always exact repeats. Equal entries are not always repeated. This is one part of the list. The main result of the screen is listed elsewhere. These columns were measured beside it and carry no call.
On the % scale 0 is the no-effect control and ±100 the full control effect.

As for `COc1ccccc1CNC(=O)CNC(=O)C1(C)Cn2c(cc3ccccc32)C(=O)N1C` (configuration not stated), the activity change, negative = inhibition in test [1] was 1.18%; in test [2], 0.087%; in test [3], 3.34%; in test [4], 8.43%; in test [5], -1.67%.
Taken in the same sequence, the figures for `CN1C(=O)c2cc(C(=O)NCCCN3CCCCC3)nn2CC1(C)C(=O)NCc1ccc(F)cc1` (configuration not stated) were 0.169%, -0.123%, -14.6%, 0.723% and -4.31%.
With `COCc1nnc2n1CCC(NC(=O)C1CC=CC1)CC2` (configuration not stated), the activity change, negative = inhibition is -0.787% in test [1]; 0.656% in test [2]; 3.25% in test [3]; -0.297% in test [4]; 0.096% in test [5].
Consider `CC1=C(/C=C/C(C)=C/C=C/C(C)=C\C(=O)O)C(C)(C)CCC1`, for which the activity change, negative = inhibition is -1.75% in test [1]; 7.22% and -8.57% in test [2]; 2.32% in test [3]; -7.94% and -22.2% in test [4]; 1.88% and -0.659% in test [5].
As to `CC(=O)O[C@@H]1C(=O)O[C@@H]2[C@H]1OC(=O)[C@@H]2OC(C)=O`, the activity change, negative = inhibition was 1.82% in test [1]; 4.14% in test [2]; 11.8% in test [3]; -7.83% in test [4]; 4.88% in test [5].
The like results for `COc1ccc(Cn2cc(C(C(=O)O)N(C)Cc3cccnc3)cn2)cc1` (configuration not stated) were, in that order, -4.64%, -7.27%, -1.49%, -10.8% and -8.15%.
The like results for `O=C(NCc1ccc(Cl)cc1)c1ccc2ccnn2c1` were, in that order, -11.7%, -6.41%, -3.72%, -12.9% and -9.07%.
For `Cc1cc(Cl)c2oc(C(=O)N(Cc3c(C)nn(C)c3C)C3CC3)c(C)c2c1`, the activity change, negative = inhibition in test [1] was -6.73%; in test [2], -1.58%; in test [3] it was -1.24%; in test [4], -28.3%; in test [5] it was 4.31%.
Taken in the same sequence, the figures for `CSc1ccc2c(c1)N(CCC1CCCCN1C)c1ccccc1S2` (configuration not stated) were -6.74%, 3.42%, -34.3%, -35.6% and 1.43%.
Consider `COC(=O)[C@H](Cc1ccc(OC)cc1)NC(=O)[C@H]1CN(S(=O)(=O)c2ccccc2)CCN1S(=O)(=O)c1ccccc1`, for which the activity change, negative = inhibition in test [1] is -4.83%; in test [2], -8.79%; in test [3], -2.41%; in test [4], -12.6%; in test [5], -8.95%.
Consider `COc1ccnc2[nH]cc(C(=O)C(=O)N3CCN(C(=O)c4ccccc4)CC3C)c12` (configuration not stated), for which the results for the activity change, negative = inhibition in test [1] and in test [3] were -12.3% and 6.05%, respectively.
Consider `CCCn1c(=O)c2ccccc2n2c(=O)n(CC(=O)Nc3cc(F)ccc3F)nc12`, for which the activity change, negative = inhibition was 0.396% in test [1]; 0% in test [2]; 2.8% in test [3]; -4.6% in test [4]; 3.49% in test [5].
The like results for `Nc1ncccc1CN1C[C@H]2CN(C(=O)C3CCC3)C[C@@]2(C(=O)O)C1` were, in that order, -5.86%, -10.4%, -3.78%, -13.4% and -6.86%.
Turning to `CCOC(=O)c1c(NC(=O)N2CCn3c(C)ccc3C2CC)sc2c1CCCC2` (configuration not stated), the activity change, negative = inhibition in test [1] was -8.36%; in test [2], 0%; in test [3] it was -0.626%; in test [4], -18.5%; in test [5], -1.83%.
As for `COc1cc(NC(=O)Cn2nc3n(Cc4ccccc4)c(=O)c4ccccc4n3c2=O)cc(OC)c1`, the activity change, negative = inhibition in test [1] is -1.04%; in test [2], 5.55%; in test [3], 1.19%; in test [4], -2.33%; in test [5], -1.38%.
Regarding `COc1ccc(-c2c(C(F)(F)F)oc3cc(OC(C)C(=O)OC4CCCCC4)ccc3c2=O)cc1OC` (configuration not stated), the activity change, negative = inhibition in test [1] is -7.5%; in test [2], 5.09%; in test [3], 0.99%; in test [4], -3.1%; in test [5] it was -3.09%.
Take `CCCN1C(=O)c2c(C(=O)NCc3cccc(Cl)c3)ncn2CC1(C)C(=O)NCc1ccc(OC)cc1` (configuration not stated): the activity change, negative = inhibition was 0.82% in test [1]; 0% in test [2]; 2.66% in test [3]; 5.46% in test [4]; 5.04% in test [5].
`NC1C=CC=C(C(=O)O)C1` (configuration not stated): the activity change, negative = inhibition was 5.78% in test [1]; 2.68% in test [2]; 11.1% in test [3]; -3.07% in test [4]; 1.04% in test [5].
On to `CC(C)(Sc1ccc(CCN(CCCCC2CCCCC2)C(=O)NC2CCCCC2)cc1)C(=O)O`, for which the activity change, negative = inhibition in test [1] is -7.66% and -4.32%; in test [2], -0.892% and 9.09%; in test [3], 5.7% and -1.24%; in test [4], -56.6% and -33.8%; in test [5], 1.98% and 4.95%.
Regarding `COc1ccc(CNc2nc3c(S(=O)(=O)c4ccc(C)cc4C)nnn3c3ccccc23)cc1`, the activity change, negative = inhibition in test [1] was 1.99%; in test [2], -1.67%; in test [3] it was -1.03%; in test [4] it was 0.248%; in test [5] it was -3.25%.

These data come from PubChem BioAssay AID1745853 (National Center for Advancing Translational Sciences (NCATS), 2022).
